± gives the standard deviation of the averaged measurements. The list shows a part of the results.
Each sequence was assayed on PfAP2-EXP AP2 domain (GST-tagged) (assay: gcPBM binding intensity (ln(normalized median fluorescence intensity)); higher = stronger DNA binding).
In short: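 Probes on an Agilent 4 × 180k array were primer-extended, double-stranded and 36 bp long, taken from intergenic genomic regions, with negative controls added. GST-tagged P. falciparum DNA-binding domains from E. coli, about 25 μg on average, were applied to the array for 1 h in 1× PBS containing 1% milk, 0.2 mg/ml BSA, 0.5% salmon testes DNA and 0.03% Triton X-100. Binding intensity, obtained after Alexa488 anti-GST antibody detection and a 488 nm scan, is the highest Masliner-normalised natural-log median intensity across replicate spots of either probe orientation.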
With “TAAATTTAGAAACACACACACATATATATATATATA [CACACA_site847]” the “gcPBM binding intensity (ln)” value was 10.3 ± 0.4.
For “TGTGGGAATAACCACACACACACACGCATATAAATA [CACACA_site7634]”, the “gcPBM binding intensity (ln)” value was 8.66 ± 0.54.
For “CTCATAAAAATAACGTTAACATAAATTTATTGTGAT [XGTACX_negctrl_site169]”, the “gcPBM binding intensity (ln)” value was 8.81 ± 0.57.
In the case of “TGAACAGACGAGCACACACACACATATATATATATA [CACACA_site1019]”, the “gcPBM binding intensity (ln)” value is reported as 10.2 ± 0.26.
In the case of “TTTTCATATGAACAATGTACACATCGTATAATTCTG [XGTACX_site4756]”, the “gcPBM binding intensity (ln)” value is reported as 8.69 ± 0.44.
“ATACATATTAAAGGATGTACACTTATATTTTTTAGA [XGTACX_site5406]” was tested, and the “gcPBM binding intensity (ln)” value was 8.25 ± 0.2.
In the case of “TATATGTCAATATCTACACACATATATATAATTATT [CACACA_site3156]”, the “gcPBM binding intensity (ln)” value is reported as 8.44 ± 0.47.
In the case of “AATATAAAACATATCACACATATGTATTTATGTATA [CACACA_site5763]”, the “gcPBM binding intensity (ln)” value is reported as 8.23 ± 0.33.
For “AAAAAAAAAAAAACATGTACATAAATGTAAAAAAGT [XGTACX_site8158]”, the “gcPBM binding intensity (ln)” value was 8.67 ± 0.88.
With “AACATACACATATACACACACACATATATACATATA [CACACA_site1093]” the “gcPBM binding intensity (ln)” value was 8.72 ± 0.44.
“ATTTTTTTTCTTTTTTTTTTACATTTTTTTCTTTTT [CACACA_negctrl_site1289]” was tested, and the “gcPBM binding intensity (ln)” value was 8.51 ± 0.45.
For “AATTAAGTTAAACATTAAAAAAAACAAAAAATTAAA [CACACA_negctrl_site1333]”, the “gcPBM binding intensity (ln)” value was 8.45 ± 0.49.
With “GCTTTTGAAAATATACACATGTTAGGAATACAGGGG [TGCATGCA_negctrl_site480]” the “gcPBM binding intensity (ln)” value was 9.26 ± 0.59.
With TATAATAACAATTTAGTGCATATAATAATATTTTAT the “gcPBM binding intensity (ln)” value was 8.39 ± 0.24.
For “ACATATAAAATGTATACACACAAATATTACAGAGAT [CACACA_site4920]”, the “gcPBM binding intensity (ln)” value was 8.78 ± 0.48.
“ATATATACATATATATGTACGTATATTTTTATTTCT [XGTACX_site6198]” was tested, and the “gcPBM binding intensity (ln)” value was 8.56 ± 0.33.
“ATTTAACAACTTCAAACACACAATATAGATTTATAT [CACACA_site7067]” was tested, and the “gcPBM binding intensity (ln)” value was 8.44 ± 0.4.
For “TATAAACCCACCTACACACACAACGTAAATGCATTG [CACACA_site2238]”, the “gcPBM binding intensity (ln)” value was 8.98 ± 0.77.
For “AATTTAAACAAGGATCCACACACCCCAAAAAAAAAA [CACACA_site8125]”, the “gcPBM binding intensity (ln)” value was 9.33 ± 0.65.
For “AATAATTAAAATTATCTACACACCTTTATAAATATA [CACACA_site9300]”, the “gcPBM binding intensity (ln)” value was 8.13 ± 0.46.
In the case of “CCTGAACACATACATACACACACACTAATAAAAAAA [CACACA_site8023]”, the “gcPBM binding intensity (ln)” value is reported as 8.61 ± 0.52.
With “GCCATTAATTTATACACACACATTATGATTTTTTAT [CACACA_site754]” the “gcPBM binding intensity (ln)” value was 8.86 ± 0.28.
“TACAAACTATGATGCACACATATATATATGTATACA [CACACA_site1226]” was tested, and the “gcPBM binding intensity (ln)” value was 8.7 ± 0.37.
With “AAAATGTGCCCACGCGTACACACAAAAAAAGAAAAA [CACACA_site2004]” the “gcPBM binding intensity (ln)” value was 8.665 ± 0.064.
In the case of “ATGCATATGTTTATTGCACACACCAAAAAGAAAACA [CACACA_site403]”, the “gcPBM binding intensity (ln)” value is reported as 8.88 ± 0.31.
With “ATACCAAATGAATAATGTACATACGAACATACATAT [XGTACX_site1301]” the “gcPBM binding intensity (ln)” value was 8.47 ± 0.41.
With “AAAAGATTAAGTAGAATAATGTTCTTTCCCAACATA [GTGCAC_negctrl_site223]” the “gcPBM binding intensity (ln)” value was 8.04 ± 0.35.
In the case of “ATATTTTTAACCAAGGACACAATTCTTGTATTGTTA [CACACA_negctrl_site1326]”, the “gcPBM binding intensity (ln)” value is reported as 8.26 ± 0.38.
For “GTACATTGTAAGGATGGAAAAGCTAAACATTATAAT [XGTACX_negctrl_site339]”, the “gcPBM binding intensity (ln)” value was 8.93 ± 0.56.
For “TAAGTCGTTATAAGCACACACATAAATAAAAATAAA [CACACA_site1574]”, the “gcPBM binding intensity (ln)” value was 8.72 ± 0.38.
For “ATATATTTATATAGGTGTACATATTTTGCTATTCAA [XGTACX_site5199]”, the “gcPBM binding intensity (ln)” value was 8.46 ± 0.38.
With “TCAATTTTTTAATGTTGTACTTTGTAAAAAAAAATA [XGTACX_site8481]” the “gcPBM binding intensity (ln)” value was 8.35 ± 0.17.
With “AAGGGTTATAAAAATTGTACTTTTTTTATTTTTTTT [XGTACX_site1313]” the “gcPBM binding intensity (ln)” value was 8.5 ± 0.41.
For “TTATCTTAATTGTGATTATAAAGATATTCTTTCTAT [GTGCAC_negctrl_site410]”, the “gcPBM binding intensity (ln)” value was 8.06 ± 0.35.
For “CAACCTCATAATATTTAACACACAAAATTATATGTA [CACACA_site8496]”, the “gcPBM binding intensity (ln)” value was 8.2 ± 0.36.
For “CATTTAGAATAAGGCACACATAAAGAACACTTTCCA [CACACA_site130]”, the “gcPBM binding intensity (ln)” value was 8.54 ± 0.44.
“TATTCTGGTGTAAATGCACACAGAAGAAGAAAAAAA [CACACA_site9225]” was tested, and the “gcPBM binding intensity (ln)” value was 8.71 ± 0.2.
In the case of “AAGGACACCTTCAAAACACACATACAAATAAATAGA [CACACA_site5771]”, the “gcPBM binding intensity (ln)” value is reported as 8.79 ± 0.5.
With “AATAAATAAAAAAAAAAAAAAAAAAAAAAAAAAAAA [XGTACX_negctrl_site343]” the “gcPBM binding intensity (ln)” value was 7.87 ± 0.33.
In the case of “TTTTTTTTTTTTGTAATACACACCACTATATGTTAT [CACACA_site1844]”, the “gcPBM binding intensity (ln)” value is reported as 8.56 ± 0.49.
With “TTCTGTTGGAATATATGTACATAATAAAAAAAAATA [XGTACX_site1741]” the “gcPBM binding intensity (ln)” value was 8.62 ± 0.45.
For “AGTTTTATAAAAATATGTACTTATATACACATGTAT [XGTACX_site4022]”, the “gcPBM binding intensity (ln)” value was 8.62 ± 0.36.
With “TATGGCAAAACATTCACACATATTTATATATGTGTA [CACACA_site5588]” the “gcPBM binding intensity (ln)” value was 8.11 ± 0.44.
For “TGTAGTCTGGAGAAAAGTACACAGTATCTGGTAACA [XGTACX_site2010]”, the “gcPBM binding intensity (ln)” value was 8.46 ± 0.47.
